Data on 86 sequences can be found in the supplement of paper PMC3334620.

In all, about 33,000 sequences were measured (“E-score (-0.5 to 0.5)”: median about -0.041, highest 2% from about 0.37 on). This is one part of the list.

The target in this assay is T1, Ecm22 (UniProt Q05958).
T1 sequence: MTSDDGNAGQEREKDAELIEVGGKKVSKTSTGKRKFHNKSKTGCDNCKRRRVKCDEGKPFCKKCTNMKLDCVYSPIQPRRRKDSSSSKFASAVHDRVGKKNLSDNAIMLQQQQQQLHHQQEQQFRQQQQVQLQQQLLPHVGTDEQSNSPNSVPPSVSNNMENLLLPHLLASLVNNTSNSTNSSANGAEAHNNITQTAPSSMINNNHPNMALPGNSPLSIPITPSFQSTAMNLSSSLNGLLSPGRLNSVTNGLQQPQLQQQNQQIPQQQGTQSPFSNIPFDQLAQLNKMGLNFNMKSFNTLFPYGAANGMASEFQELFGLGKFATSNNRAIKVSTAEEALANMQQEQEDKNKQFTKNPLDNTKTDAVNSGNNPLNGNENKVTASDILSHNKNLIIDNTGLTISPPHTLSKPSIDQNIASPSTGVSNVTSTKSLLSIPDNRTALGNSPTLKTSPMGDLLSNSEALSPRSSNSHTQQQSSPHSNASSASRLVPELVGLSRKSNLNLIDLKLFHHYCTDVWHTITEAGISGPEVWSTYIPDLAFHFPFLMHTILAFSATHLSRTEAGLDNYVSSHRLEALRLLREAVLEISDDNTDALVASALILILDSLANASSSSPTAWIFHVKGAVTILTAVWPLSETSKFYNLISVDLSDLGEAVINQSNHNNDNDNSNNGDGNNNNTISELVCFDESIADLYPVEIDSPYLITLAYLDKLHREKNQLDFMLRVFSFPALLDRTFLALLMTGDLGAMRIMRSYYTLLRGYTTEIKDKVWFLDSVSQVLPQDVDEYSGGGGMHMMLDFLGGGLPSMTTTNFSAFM
As to the kind of experiment: PBM E-score (8-mer binding enrichment) (E-score (-0.5 to 0.5)); higher = stronger / more preferred TF binding; most listed sequences are background and not binding sites. Particulars: protein concentration: 200 nM; construct: GST-full length. The method, boiled down:
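For each ungapped eight-base word taken together with its reverse complement, the Universal PBM Analysis Suite assigned an E-score. Binding data came from GST-tagged yeast transcription factors, applied at about 100-200 nM, on universal all-10-mer Agilent arrays made double-stranded by primer extension. Fluorescent anti-GST marked bound protein, and scans were normalised with masliner.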
With GTATGTTA, the “PBM E-score” value stood at 0.201.
As to CCGAAGCG, the “PBM E-score” value worked out at 0.13.
The figure for AAGGGAAA is -0.28; for ACGAGGCC it is 0.376.
The same measure for AACGGGGG: 0.167; for GCTTTCAC: -0.0514; for ACTTCCAC: -0.13.
The figure for ATGGTGTG is -0.0904; for ATGTTGCG it is 0.0646.
Regarding CATACTAG, the “PBM E-score” value is -0.0362.
Take AGGTACCA: the “PBM E-score” value stood at 0.00827.
The figure for AGATCAAC is 0.024; for ATCTAAGC it is -0.0203; for ATCCAACA it is -0.157.
For the sequence CCTGTATC, the “PBM E-score” value was -0.0489.
With GCCGAGTA, the “PBM E-score” value turned out to be 0.0615.
The same measure for ACTGTGCG: 0.0745; for ACCTCCGA: -0.0432.
The same measure for ATTGTGTG: -0.164; for ACCGGTGA: 0.0428; for CACCCCCG: -0.2.
Turning to CCCACACG, the “PBM E-score” value is -0.0368.
The same measure for AGGTTTTG: -0.0614.
The same measure for ATCTACCC: 0.0111.
The same measure for CCATTACG: 0.0387.
On to GCCCTCCA, for which the “PBM E-score” value was -0.252.
The figure for ACAACTGA is 0.096.
The figure for ACAACTCT is -0.0522.
AACACAAC: the “PBM E-score” value is 0.183.
Take AAAGCAAT: the “PBM E-score” value is -0.109.
The figure for GAAGCTAC is 0.0734; for AAATACCA it is -0.0648; for TGTCCTAA it is -0.0604.
For the sequence AGAGTATC, the “PBM E-score” value came out at 0.192.
The same measure for GGATGGCA: 0.0441.
Regarding TACGTATA, the “PBM E-score” value amounted to 0.401.
The figure for AAGGGACA is -0.238; for GGCTTACA it is -0.161; for GGGGCGAA it is -0.169.
On to GCATTCTA, for which the “PBM E-score” value is -0.0832.
The same measure for CACCCCCA: -0.253; for CGAAAGGA: 0.057; for AAAGCACG: 0.119.
The same measure for AAAGCGAG: 0.283.
With AAGACCTG, the “PBM E-score” value was -0.253.
Turning to CCAAACAC, the “PBM E-score” value is 0.0858.
As to GCGTGGGA, the “PBM E-score” value turned out to be 0.0285.
AATACCAG: the “PBM E-score” value amounted to 0.0286.
The figure for AACCGCTG is 0.0452; for ACGTGTCC it is -0.203; for CTAGCTGA it is -0.0563.
The figure for TGCGGGAA is 0.0898; for AGTTATCC it is -0.0306; for GAAATTGA it is -0.0483.
The figure for GCTCAACC is -0.0868; for AAGAGAAA it is -0.221; for AGTAAGAA it is -0.0334.
As to GTTAAAGA, the “PBM E-score” value worked out at 0.0605.
In the case of AATCAGGC, the “PBM E-score” value was -0.211.
For GATTGAGC, the “PBM E-score” value came out at 0.0976.
The figure for ACCCTCCT is -0.209.
Turning to CAGTAGCA, the “PBM E-score” value worked out at 0.00647.
The figure for ATGGCGAG is -0.0404; for CAGCCGTA it is 0.27; for ACGTACGA it is 0.441.
As for AGTATGGA, the “PBM E-score” value was -0.115.
In the case of AGCCCGTG, the “PBM E-score” value was -0.0881.
For CACGATGA, the “PBM E-score” value came to 0.19.
The same measure for GGGCCGGA: -0.107.
For the sequence GGTGCAAA, the “PBM E-score” value is -0.0673.
The same measure for ATACCAGA: -0.0074.
The same measure for ACCAGACG: -0.112; for ACAGAGGG: -0.13; for ATTGTATC: -0.0265.
On to CCCCAGGC, for which the “PBM E-score” value was -0.326.
The same measure for ATCAACCG: -0.0038; for CTCACGGA: -0.119; for ATTGGGAC: -0.192.
Turning to ACACTGCC, the “PBM E-score” value was -0.0292.
In the case of GTGAATAA, the “PBM E-score” value is -0.162.
The figure for ATGCTTTG is -0.128.
On to AGACACAA, for which the “PBM E-score” value is -0.272.
CGTAAAAA: the “PBM E-score” value worked out at 0.404.
As for AGGACCCT, the “PBM E-score” value is -0.235.
ATAATTAT: the “PBM E-score” value turned out to be 0.311.
CCTCTACC: the “PBM E-score” value was -0.222.
